Assay results reported in PMC4336329 (PLoS ONE, 2015).
Among all 310,000 compounds or so, about 2,200 (0.71%) showed an effect of 50% or more. Effects have a minus sign here. The list shows a part of the results.

Molecular target: human ether-à-go-go-related gene (hERG) potassium channel (human, UniProt Q12809)
Experiment: primary screen, population patch clamp on CHO cells stably expressing hERG

human ether-à-go-go-related gene (hERG) potassium channel, sequence (Q12809 whole entry, looked up): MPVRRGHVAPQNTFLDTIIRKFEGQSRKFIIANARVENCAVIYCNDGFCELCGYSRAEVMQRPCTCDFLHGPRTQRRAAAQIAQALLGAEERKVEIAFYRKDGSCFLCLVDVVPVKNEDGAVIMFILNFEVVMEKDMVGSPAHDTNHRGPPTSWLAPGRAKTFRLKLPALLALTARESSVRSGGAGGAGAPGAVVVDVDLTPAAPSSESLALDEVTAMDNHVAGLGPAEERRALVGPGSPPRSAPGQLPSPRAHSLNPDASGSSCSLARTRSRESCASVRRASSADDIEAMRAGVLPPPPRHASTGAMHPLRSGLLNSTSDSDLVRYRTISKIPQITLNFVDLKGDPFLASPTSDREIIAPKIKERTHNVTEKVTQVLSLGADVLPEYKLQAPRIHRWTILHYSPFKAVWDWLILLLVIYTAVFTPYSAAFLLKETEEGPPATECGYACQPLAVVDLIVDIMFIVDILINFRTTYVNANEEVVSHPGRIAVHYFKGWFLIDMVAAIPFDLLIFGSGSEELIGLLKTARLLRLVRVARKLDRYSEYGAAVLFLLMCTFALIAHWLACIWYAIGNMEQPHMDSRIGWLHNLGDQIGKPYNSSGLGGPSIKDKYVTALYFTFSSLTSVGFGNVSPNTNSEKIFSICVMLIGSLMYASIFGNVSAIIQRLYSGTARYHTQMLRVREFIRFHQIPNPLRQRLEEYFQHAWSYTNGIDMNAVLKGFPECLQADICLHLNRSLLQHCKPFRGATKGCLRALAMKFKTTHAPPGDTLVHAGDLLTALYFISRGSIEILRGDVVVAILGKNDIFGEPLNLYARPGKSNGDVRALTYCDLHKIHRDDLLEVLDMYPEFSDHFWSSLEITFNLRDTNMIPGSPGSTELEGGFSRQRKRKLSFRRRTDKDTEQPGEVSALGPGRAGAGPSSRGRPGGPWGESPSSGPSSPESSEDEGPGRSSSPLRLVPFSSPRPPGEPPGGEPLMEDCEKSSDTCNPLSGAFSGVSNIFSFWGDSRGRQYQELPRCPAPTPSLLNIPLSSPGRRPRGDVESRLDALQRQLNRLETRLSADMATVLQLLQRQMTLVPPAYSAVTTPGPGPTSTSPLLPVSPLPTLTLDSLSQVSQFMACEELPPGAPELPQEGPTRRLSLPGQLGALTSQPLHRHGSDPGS

SMILES | hERG current change (%, negative = inhibition) at 1uM
O=C(CNC(=O)c1ccc(Br)o1)NCC(=O)OCc1ccccc1 | 1.1%
COc1ccc(N(C(=O)c2cccc([N+](=O)[O-])c2)S(=O)(=O)c2ccc3c(c2)n(C)c(=O)n3C)cc1 | -12%
CCCn1c(SCC(=O)NNC(=O)c2ccccc2)nnc1-c1cccnc1 | 5.05%
C=CCNC(=O)c1cc2c(=O)n3ccccc3nc2s1 | 14.1%
CCOC(=O)c1sc(=NC(=O)c2cccc(Br)c2)n(C)c1C | 26.1%
C#Cc1ccc(CN2CCN(Cc3ccsc3)C(CCO)C2)cc1 (centres unmarked) | 9.5%
Cc1cccc(-n2[nH]c(C)c(C=Nc3ccc4[nH]c(=O)[nH]c4c3)c2=O)c1 | 3.23%
CN1CCN(C(=S)NCCc2ccccc2)CC1.O=C(O)C(=O)O | 0.335%
CN(Cc1ccccc1)C(=O)CCn1c(=O)oc2ccccc21 | -2.35%
O=C(COC(=O)C1CCCO1)Nc1cccc(C(F)(F)F)c1 (centres unmarked) | 15.2%
CN(c1ccccc1)S(=O)(=O)c1cccc(NC(=O)Nc2ccc(Cl)cc2C#N)c1 | -4.02%
NC(=O)COC(=O)c1ccc2c(c1)C(=O)N(Cc1ccco1)C2=O | 9.91%
CCCS(=O)(=O)N1CCC(C(=O)N2CCC3(CC2)OCCO3)CC1 | -13.4%
COc1ccc(C(C(=O)NC2CCCCC2)N(C(=O)c2ccccn2)c2cccnc2)c(OC)c1 (centres unmarked) | 20.3%
COc1ccc(CNC(=O)C2CCC(=O)N(CCCN3CCCC3=O)C2)c(OC)c1 (centres unmarked) | 8.88%
CC(C)(C)NC(=S)NNC(=O)[C@H]1C[C@@H]1c1ccccc1 | 11.6%
O[C@@H]1CN(Cc2ccccc2Cl)CC[C@H]1N1CCOCC1 | 14.4%
CCn1nc(NC(=O)CC(C)C)c2cc3ccc(C)cc3nc21 | 22.7%
NC(=O)NCc1ccccc1Cl | 18.4%
CCc1c(C)nc(SCC(=O)Nc2nc(-c3ccc(OC)cc3)cs2)[nH]c1=O | 7.13%
Cc1ccc(S(=O)(=O)Nc2cccc(-c3cn4ccsc4n3)c2)cc1 | 13.6%
Cn1cccc1Cc1nnc(SCC(=O)Nc2ccc3c(c2)OCCO3)n1-c1ccc(F)cc1 | 5.74%
CC(C)NCC(=O)C12CC3CC(CC(C3)C1)C2 | 8.46%

SMILES | hERG current change (%, negative = inhibition) at 1uM
CCC(Sc1nc2ccncc2[nH]1)C(=O)Nc1cc(Cl)ccc1C (centres unmarked) | -8.86%
CN1CCN(C(=O)C2=C[C@H](c3coc4ccccc4c3=O)C[C@H](OCc3ccc(CO)cc3)O2)CC1 | 3.49%
COc1ccc(C(=O)c2c(N)sc3c2CCN(C(=O)OC(C)(C)C)C3)cc1 | 13.1%
COc1ccc(OC)c(NC(=O)[C@@H]2CCCN2C(=O)c2cccs2)c1 | 11.3%
CC(=O)N1CCCc2cc(S(=O)(=O)N3CCCC(C(=O)NCc4ccc(Cl)cc4)C3)ccc21 (centres unmarked) | 14.1%
CCOC(=O)/C=c1\s/c(=C(\C#N)C(N)=O)n(-c2ccccc2)c1=O | 7.02%
Cc1cc(C)c(C(=O)Cn2nc(C)c([N+](=O)[O-])c2C)cc1C | -1.65%
COc1cccc2cc(C(=O)N3CCN(C(=O)c4ccco4)CC3)c(=O)oc12 | 10.1%
CN(CCNC(=O)C1CCC(=O)N(Cc2cccc(F)c2)C1)CCc1ccccc1 (centres unmarked) | -14.8%
Cc1ccc(OCc2nnc(SCC(=O)Nc3ccc(N4CCOCC4)cc3)o2)cc1 | 9.76%
COc1ccc(Br)cc1CNCCc1ccc2c(c1)OCO2 | -4.27%
COc1ccc(S(=O)(=O)N2CCN(c3cccc(C)c3C)CC2)cc1 | 4.69%
CCC(=O)Nn1c(C)nnc1C | 9.41%
O=C(CSc1ncn[nH]1)NCCc1ccccc1 | 3.9%
O=C(C1CCN(C2CC(=O)N(c3cccc(Cl)c3)C2=O)CC1)N1CCCC1 (centres unmarked) | 14%
COc1ccc(CCNS(=O)(=O)c2csc(C(N)=O)c2)cc1OC | 16.3%
CS(=O)(=O)c1cccc(NC(=O)C2CC2)c1 | 6.54%
COc1ccccc1C(=O)NNC(=O)c1ccc(Br)cc1 | 12.3%
CCNC(=O)CCS(=O)(=O)c1ccc2ccccc2c1 | 10.5%
COc1ccc(C(=O)Nc2cc(-c3nn4c(C)nnc4s3)ccc2C)cc1 | -10.1%
Cc1cc(NC(=O)CCC(=O)N(C2CC2)C(C(=O)NC(C)(C)C)c2ccccc2Cl)no1 (centres unmarked) | 12.6%
COc1ccc(CC2(CO)CCN(Cc3cnc(-c4ccccc4C)nc3)CC2)cc1 | 9.46%
COc1ccc(C(=O)NNC2=NC(C)(C)Cc3cc(C)c(C)cc32)cc1 | 22.9%

SMILES | hERG current change (%, negative = inhibition) at 1uM
CCOC(=O)CSc1cc(C)nc2ccc(OC)cc12 | 7.94%
O=C1Nc2ccccc2N(O)N1c1ccc(S(=O)(=O)Nc2ccccn2)cc1 | 11.1%
Cc1cc(NC(=O)CSc2ncnc3sccc23)no1 | 10.1%
COC(C/C=C/[C@@H](O)[C@@H](C)OCc1ccccc1)OC | 11.4%
CCC/C=C(\CCC)C(NP(=O)(c1ccccc1)c1ccccc1)c1ccccc1 (centres unmarked) | 13.5%
CC(=O)OCC[N+](C)(C)C.[Cl-] | 20.1%
COC(=O)C1=C(CSc2nc3c(cc2C#N)CN(C)CC3)OC(N)=C(C#N)C1c1ccc(F)cc1 (centres unmarked) | -2.64%
Cc1cccc2cc(C#N)c(NCCNS(=O)(=O)c3ccc4c(c3)OCCO4)nc12 | 12%
Cc1cc(O)cc(O)c1C=NCc1ccco1 | 6.59%
COc1ccc(C)cc1NC(=O)CN1C(=O)COc2ccc(S(=O)(=O)N3CCOCC3)cc21 | 12%
N#C/C(=C/c1ccc(Br)s1)C(=O)NCCc1c[nH]c2ccccc12 | 2.08%
CCn1cc(CN2CCC(n3nccc3NC(=O)CCOc3ccccc3)CC2)cn1 | -13.1%
CC1(C)CC2CC(C)(CN2C(=O)CCCN2C(=O)c3ccccc3C2=O)C1 (centres unmarked) | -2.37%
COC(=O)c1ccc(C)c(NC(=O)CCc2ccc(OC)cc2)c1 | 7.12%
O=C(CCCCn1c(=O)[nH]c2ccccc2c1=O)NC1CCN(Cc2ccccc2)CC1 | 2.6%
Cc1sc(NC(=O)C2=COCCO2)nc1-c1ccc(Br)cc1 | 11.6%
CC(C)Sc1ncnc2c1cnn2-c1ccccc1 | 2.46%
COc1cccc(NC(=O)c2c(C)cc(C)cc2CC(C)(C)C(=O)O)c1 | 14.5%
CCCCN(C(=O)CCC(=O)Nc1cc(C)on1)C(C(=O)NC1CCCC1)c1ccccc1C (centres unmarked) | -1.28%
COc1ccc(C(CNC(=O)c2ccc(-c3ccccc3)cc2)N(C)C)cc1OC (centres unmarked) | 13.3%
O=C(c1ccc2c3c(cccc13)CC2)C1CCCN(C(=O)c2cccnc2)C1 (centres unmarked) | 6.86%
CC(C)(O)CCc1c(-c2ccc(O)cc2O)oc2c3c(cc(O)c2c1=O)OC(C)(C)C=C3 | 14.9%
CC(C)(C)C1CCC(C(=O)Nc2cccnc2)CC1 (centres unmarked) | 4.46%

SMILES | hERG current change (%, negative = inhibition) at 1uM
Cc1onc(-c2c(Cl)cccc2Cl)c1C(N)=S | 8.83%
NNC(=O)C1CCCN1S(=O)(=O)c1ccc(Cl)cc1 (centres unmarked) | -9.82%
Cn1c(SCC(=O)Nc2ccccc2)nc2c([nH]c3ccccc32)c1=O | 18.3%
Cc1ccc(CN(Cc2ccc(C)o2)C(=S)NCC(=O)O)cc1 | 12.9%
Cc1ccc(N(CC(=O)NCc2ccc3c(c2)OCO3)S(C)(=O)=O)cc1 | 19.2%
CCCCNS(=O)(=O)c1ccc(OC)c(C)c1 | 13.5%
COc1ccccc1NC(=O)CSc1nccn1Cc1ccc(F)cc1 | 13.4%
CC1=C(C(=O)Nc2ccc(F)c(F)c2)C(c2cccs2)NC(=S)N1 (centres unmarked) | 15.1%
Cc1cc(C)nc(NS(=O)(=O)c2ccc(N=NN(C)C)cc2)n1 | 9.32%
O=C(CSc1nc2ccc(Cl)cc2[nH]1)N1CCN(C(=O)c2ccco2)CC1 | -15.7%
C/C(=N\N=C1\NC(=O)CC(C(=O)O)S1)c1cccs1 (centres unmarked) | 8.79%
CNC(=O)Oc1ccc2c(c1)C(=O)c1ccccc1CO2 | 12.1%
O=C(Nc1cccnc1)c1ccc(Cl)c(S(=O)(=O)N2CCCCC2)c1 | 7.75%
Cc1cc(C)c(C(=O)Nc2ccc(Br)c(C(F)(F)F)c2)c(C)c1 | 10%
C(=N\N1CCN(c2ccccn2)CC1)/C1=C(N2CCOCC2)C(=C/c2ccccc2)/CC1 | 12.8%
Cc1ccc(CSCc2ccc(C(=O)O)o2)cc1 | 17.4%
COc1ccc(-c2cc(C(=O)N3CCOCC3)no2)cc1 | 11.2%
Cc1cccc(N2CCN(S(=O)(=O)c3ccc4c(c3)C(C)(C)C(=O)N4C)CC2C)c1 (centres unmarked) | 7.22%
CCOC(=O)C1=C(CN2CCN(C(=O)c3ccco3)CC2)NC(=O)NC1c1ccc(F)cc1 (centres unmarked) | -2.81%
COc1ccccc1C(CNC(=O)C(C)(C)Oc1ccc(Cl)cc1)N1CCCC1 (centres unmarked) | -2.23%
